The campaign covered roughly 310,000 compounds. About 2,200 (0.71%) showed an effect of 50% or more. Effects have a minus sign here. This is one part of the list.
Biological target: human ether-à-go-go-related gene (hERG) potassium channel (human, UniProt Q12809)
Assay: primary screen, population patch clamp on CHO cells stably expressing hERG

Sequence of human ether-à-go-go-related gene (hERG) potassium channel (Q12809 whole entry, looked up): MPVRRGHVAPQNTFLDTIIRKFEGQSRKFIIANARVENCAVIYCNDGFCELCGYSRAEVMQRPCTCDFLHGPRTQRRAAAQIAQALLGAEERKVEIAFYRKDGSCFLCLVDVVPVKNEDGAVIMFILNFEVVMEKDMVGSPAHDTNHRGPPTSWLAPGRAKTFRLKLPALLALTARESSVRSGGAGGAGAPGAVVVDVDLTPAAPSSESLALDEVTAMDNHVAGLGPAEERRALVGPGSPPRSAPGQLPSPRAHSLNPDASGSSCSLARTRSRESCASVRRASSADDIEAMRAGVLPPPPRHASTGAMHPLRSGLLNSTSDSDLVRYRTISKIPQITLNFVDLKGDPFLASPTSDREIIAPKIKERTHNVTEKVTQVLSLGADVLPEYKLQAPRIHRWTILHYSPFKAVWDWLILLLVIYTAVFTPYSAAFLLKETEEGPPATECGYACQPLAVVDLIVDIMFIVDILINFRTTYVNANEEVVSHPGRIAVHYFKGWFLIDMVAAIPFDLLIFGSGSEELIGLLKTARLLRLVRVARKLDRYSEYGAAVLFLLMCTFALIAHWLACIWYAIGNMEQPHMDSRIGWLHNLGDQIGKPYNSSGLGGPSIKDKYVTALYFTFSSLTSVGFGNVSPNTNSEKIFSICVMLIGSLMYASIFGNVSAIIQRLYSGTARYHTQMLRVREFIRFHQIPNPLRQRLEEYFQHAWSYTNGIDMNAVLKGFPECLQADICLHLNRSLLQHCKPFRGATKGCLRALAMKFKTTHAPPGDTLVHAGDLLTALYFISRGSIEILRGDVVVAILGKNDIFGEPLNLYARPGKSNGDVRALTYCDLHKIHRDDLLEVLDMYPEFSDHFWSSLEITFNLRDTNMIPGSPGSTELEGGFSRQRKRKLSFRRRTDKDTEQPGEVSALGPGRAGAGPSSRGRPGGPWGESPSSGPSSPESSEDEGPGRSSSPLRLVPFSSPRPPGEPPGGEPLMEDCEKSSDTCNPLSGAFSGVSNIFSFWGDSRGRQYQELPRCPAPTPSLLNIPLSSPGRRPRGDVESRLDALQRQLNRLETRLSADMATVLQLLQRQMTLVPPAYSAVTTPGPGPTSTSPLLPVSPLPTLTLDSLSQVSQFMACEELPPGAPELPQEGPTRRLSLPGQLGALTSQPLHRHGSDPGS

Structure (SMILES)	hERG current change (%, negative = inhibition) at 1uM
CCS(=O)(=O)N1CCC(C(=O)N2CCN(Cc3ccccc3)CC2)CC1	3.79%
CCOC(=O)C1CCN(/C=C2/C(=O)NC(=O)N(c3ccc(OCC)cc3)C2=O)CC1	5.75%
CCN(CC)C(=O)C1=C(C)Nc2nc3ccccc3n2C1c1cccc(OC)c1 (stereo not shown)	8.97%
Cc1cccc(C)c1-n1c(C)cc(/C=N/NC(=O)c2ccncc2)c1C	-5.21%
CCn1c(CSc2ncn[nH]2)nc2cc(C(=O)O)ccc21	7.49%
C/C=C/C(=O)Nc1nnc(C(C)C)s1	10.9%
CCCCC1(C)Nc2ccccc2-c2nc3ccccc3n21 (stereo not shown)	19.3%
Cc1ccc2[nH]c(C(=O)O)c(-c3ccccc3)c2c1	15%
Cc1c(C(=O)O)nn(-c2cccc(C(F)(F)F)c2)c(=O)c1C#N	12.2%
CN=C1NN=C(c2cc(C)n(-c3c(C)n(C)n(-c4ccccc4)c3=O)c2C)CS1.Cl	5.63%
CC(=O)Nc1ccc(S(=O)(=O)N2CCSC2)cc1	7.34%
Cc1ccc(CNC(=O)CN2CCC(C(N)=O)CC2)cc1	4.4%
Cc1ccc(C(=O)N2CCCC(CCC(=O)N3CCN(c4ccccn4)CC3)C2)s1 (stereo not shown)	-8.2%
Cl.OC(COc1ccc(Br)cc1)CN1CCC(Cc2ccccc2)CC1 (stereo not shown)	-83.7%
Cc1ccc(O)c(NC(=O)c2ccc3c(c2)C(=O)N(CC(C)C)C3=O)c1	17.2%
CC(C)=NNc1nc2c(c(=O)[nH]c(=O)n2C)n1CCc1ccccc1	3.7%
COc1ccc(-n2c(C)ccc2-c2ccccc2)cn1	14.7%
C=C(C)C1Cc2c(C)nn(-c3cccc4cccnc34)c2C1 (stereo not shown)	6.3%
O=C(NNC(=O)c1ccc(-c2ccc([N+](=O)[O-])cc2)o1)c1ccncc1	0.186%
COC(=O)c1ccccc1NC(=O)Nc1nnc(N2CCC(C)CC2)s1	8.89%
C#CCNc1nc(CC)nc2c1nnn2Cc1ccccc1F	8%
CCN(CC)CCN=Cc1c(O)n(Cc2ccco2)c(=O)[nH]c1=O	5.75%
COC(=O)C(CCCN1C(=O)c2ccccc2C1=O)(NC(C)=O)c1nn[nH]n1 (stereo not shown)	13.3%

Structure (SMILES)	hERG current change (%, negative = inhibition) at 1uM
O=C(CSc1nnc(Cn2nnc(-c3ccccc3)n2)n1-c1ccccc1)Nc1ccccc1	11.7%
COc1cc(-c2nnc(SCC(=O)N3CCCC3)o2)cc(OC)c1OC	1.8%
Cc1ccc(C)c(NC(=O)CCC(=O)NNC(=O)C(c2ccccc2)c2ccccc2)c1	12%
CC1=C(C)/C(=N\OS(=O)(=O)c2ccc(C)cc2)C=CC1=O	13.6%
Oc1ccc(Nc2nc(-c3ccc(O)cc3)cs2)cc1	17.1%
NC(=O)C1CCN(C(=O)c2ccc([N+](=O)[O-])cc2NC(=O)c2cccs2)CC1	6.75%
COC(=O)COc1ccc2c(-c3ccc(OC)cc3)cc(=O)oc2c1	-6.49%
O=c1[nH]ncc(N2CCCCCC2)c1Cl	15.7%
CCOc1ccc(NC(=O)c2nn(-c3ccc(OC)cc3OC)c(=O)c3ccccc23)cc1	9.85%
Cc1ccc(-c2noc(-c3cccs3)n2)cc1	3.63%
CCC(=O)Nc1nnc(S(=O)(=O)N(CC)c2cc(C)cc(C)c2)s1	11.5%
CCCCN=Cc1c(C)[nH]n(-c2ccccc2)c1=S	13.8%
O=C(Nc1cccnc1)c1ccc2c(c1)C(=O)N(Cc1cccnc1)C2=O	2.58%
COc1cccc(CC2(CO)CCCN(Cc3cn[nH]c3-c3ccc(F)cc3)C2)c1 (stereo not shown)	6.39%
Clc1ccc(CSc2nnc(Cn3cnc4ccccc43)o2)cc1	15.6%
COc1ccc(/C=C2\SC(=S)N(CCCC(=O)N3CCCCC3CCO)C2=O)cc1 (stereo not shown)	11.8%
NC(=O)COC(=O)c1ccc2noc(-c3ccccc3)c2c1	11.1%
O=[N+]([O-])c1ccc2[nH]c(O)c(N=Nc3ccc(F)cc3)c2c1	14.3%
CCCn1c(SCC(=O)c2ccc(OC)c(OC)c2)nc2c1c(=O)n(C)c(=O)n2C	0.518%
O=C(Nc1cccc(O)c1)N1CCOCC1	4.34%
COc1ccc(NC(=O)C2CCCN(S(=O)(=O)c3c(C)n[nH]c3C)C2)cc1OC (stereo not shown)	11.3%
COc1ccc(-c2cnnc(N/N=C/c3ccc(C)o3)n2)cc1	1.66%
CC(=O)Nc1ccc(S(=O)(=O)Nc2ccccc2C(=O)NCc2cccnc2)cc1	12.9%

Structure (SMILES)	hERG current change (%, negative = inhibition) at 1uM
Cc1ccc(Cl)cc1N1CCN(C(=O)c2ccc(CN3CCOCC3)cc2)CC1	-4.42%
Cc1ccc(O)c(C(=O)c2cnc3c(c2)COc2ccc(C)cc2-3)c1	13%
Cc1nc2sc(C(c3cccs3)N3CCC4(CC3)OCCO4)c(O)n2n1 (stereo not shown)	4.48%
O=C(CCN1C(=O)c2ccccc2C1=O)OCN1C(=O)c2ccccc2C1=O	3.52%
N#Cc1ccccc1S(=O)(=O)N1CCN(C(=O)CN2CCCC2c2cccs2)CC1 (stereo not shown)	-3.17%
CC(NC(=O)CN(C)CC(=O)Nc1ccccc1Br)c1ccccc1.O=C(O)C(=O)O (stereo not shown)	11.5%
CC1CCN(c2nc3nonc3nc2N2CCC(C)CC2)CC1	1.36%
CCC(Sc1nc2ncnc(N)c2[nH]1)C(=O)O (stereo not shown)	17%
COc1ccc(C2C3(C#N)C(N)=NC(OC)(OC)C23C#N)cc1 (stereo not shown)	5.47%
Cc1ccccc1-c1nn(-c2ccc(F)cc2F)cc1CNCCCN(C)C	10.8%
CNc1c([N+](=O)[O-])cnn1-c1ccc(C)cc1	6.69%
COc1ccc([N+](=O)[O-])cc1NC(=O)C(C)Sc1ccccc1 (stereo not shown)	5.16%
COC(=O)Cn1cc(/C=C2\C(=O)NC(=O)N(c3ccccc3)C2=O)c2ccccc21	2.82%
CCCn1nnnc1NC(=O)CSc1ccc(Cl)cc1	11.7%
OCCNc1ncnc2ccc(Br)cc12	11.5%
Cl.O=C(CNCc1ccccc1)NC1C2CC3CC(C2)CC1C3 (stereo not shown)	11.9%
CN(Cc1nc(-c2cccs2)no1)CC1COCCO1 (stereo not shown)	7.95%
Cc1ccc(NC(=O)CN2CCN(Cc3ccccc3)CC2)cc1Cl	2.3%
O=C(COC(=O)c1cc(=O)[nH]c2ccccc12)NCc1ccc(Cl)cc1	12.1%
COc1ccccc1OCC(=O)Nc1cc(Cl)ccc1N1CCCCC1	9.89%
O=C(O)c1ccc(S(=O)(=O)N2CCC(n3nnc4cc(C(F)(F)F)ccc43)CC2)cc1	-32.9%
O=C(CSc1ccccc1)N1CCN(c2ccccn2)CC1	6%
CCOC(=O)CSc1nc(-c2ccccc2)nc2c1oc1ccccc12	11.1%

Structure (SMILES)	hERG current change (%, negative = inhibition) at 1uM
CCCn1cc(CN2CCC(Cc3ccccc3)(C(=O)OCC)CC2)c(C)n1	-14%
COCc1[nH]nc2c1C(C1C=CCCC1)C(C#N)=C(N)O2 (stereo not shown)	0.934%
CCOC(=O)C1CCCN(C(=O)Cn2nc(C)n3nc(-c4ccccc4)cc3c2=O)C1 (stereo not shown)	-0.79%
Cc1cc(C)c2c(NC(=O)CCl)nn(C)c2n1	15.7%
O=C(CCN1C(=O)c2ccccc2C1=O)N1CCN(c2ccccc2)CC1	-13.4%
O=C(Nc1ccc([N+](=O)[O-])cn1)C1CCCCC1	6.15%
COC(=O)C1=C(C)NC(=S)NC1c1ccc(OCC(=O)N2CCCCC2)c(OC)c1 (stereo not shown)	15.7%
O=C1CCCCCN1C(=O)c1cccc(C(=O)N2CCCCCC2=O)c1	11.1%
CCOC(=O)N1CCN(C(=O)c2ccc(CS(=O)Cc3ccccc3Cl)o2)CC1 (stereo not shown)	10.5%
CCc1ccccc1N1C(=O)C2C3CC(=O)C(c4ccccc43)C2C1=O (stereo not shown)	14.2%
CN(C)C(=O)/C=C\c1cn(-c2ccccc2)nc1-c1ccc2c(c1)OCCO2	10.2%
CCOC(=O)C(C)Sc1nnc(CNC(=O)c2ccc(OC)cc2)n1C1CCCCC1 (stereo not shown)	12.7%
CCNC(=S)Nc1cccc(NC(=O)c2ccccc2O)c1	7.53%
CCc1nc(SCC(=O)N2CCCCCC2)c2c(=O)n(C)c(=O)n(C)c2n1	0.779%
O=C(O)C1CSC(c2ccncc2)N1 (stereo not shown)	17.4%
O=C(CN1CCN(C(=O)C2CCCO2)CC1)Nc1cc(C(F)(F)F)ccc1Cl (stereo not shown)	-2.84%
CSc1ccc(C2c3[nH]c4ccccc4c3CCN2C(=O)c2ccnn2C)cc1 (stereo not shown)	8.79%
Cc1cccc(N2N=C(C(=O)O)CCC2=O)c1	7.57%
CCC(=O)Nc1ccc(NC(=O)c2ccco2)cc1	10.9%
COC(=O)N(NC(=O)C(O)(C(C)C)C(C)C)c1ccccc1	14.5%
O=C1CC(O)(C(F)(F)F)Oc2c1ccc1ccccc21 (stereo not shown)	12.7%
COc1ccc(C(=O)N2CCCc3ccccc32)cc1Br	7.06%

— PMC4336329 (PLoS ONE, 2015)
